The record followed here is US20240383990A1 (DIAGONAL THERAPEUTICS, published 2024).

Assay in all cases: cell-based or functional assay
Assay [1] has as its target T1, ALK1 / BMPRII receptor pair (BMPR Type I receptor ALK1 and BMPR Type II receptor BMPRII) on cells (UniProt P37023 22-503; Q13873 27-1038, limits assumed).
Assay [2] deals with T1, ALK1 / BMPRII receptor pair (BMPR Type …). This is another data set of the same source.
For assay [3] the target is unchanged. This is another data set of the same source.
Assay [4] shares this target. This is another data set of the same source.

Read-outs that look alike come from different tables or passages of the source.

T1 sequence (P37023 22-503 limits assumed, chain 1 of 2): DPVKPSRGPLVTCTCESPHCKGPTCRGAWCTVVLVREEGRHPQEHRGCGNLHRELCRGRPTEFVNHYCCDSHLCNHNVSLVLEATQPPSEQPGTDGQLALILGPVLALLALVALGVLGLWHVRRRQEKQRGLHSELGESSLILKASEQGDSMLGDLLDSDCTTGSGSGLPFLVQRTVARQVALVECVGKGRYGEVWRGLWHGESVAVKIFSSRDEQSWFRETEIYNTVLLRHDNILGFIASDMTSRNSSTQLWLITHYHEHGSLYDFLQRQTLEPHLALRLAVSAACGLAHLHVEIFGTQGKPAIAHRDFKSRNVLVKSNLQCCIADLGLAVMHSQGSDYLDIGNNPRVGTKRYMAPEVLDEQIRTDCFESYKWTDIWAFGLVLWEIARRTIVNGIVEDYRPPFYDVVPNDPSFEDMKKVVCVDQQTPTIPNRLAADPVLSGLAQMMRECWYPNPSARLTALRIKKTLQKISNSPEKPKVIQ
T1 sequence (Q13873 27-1038 limits assumed, chain 2 of 2, further chain): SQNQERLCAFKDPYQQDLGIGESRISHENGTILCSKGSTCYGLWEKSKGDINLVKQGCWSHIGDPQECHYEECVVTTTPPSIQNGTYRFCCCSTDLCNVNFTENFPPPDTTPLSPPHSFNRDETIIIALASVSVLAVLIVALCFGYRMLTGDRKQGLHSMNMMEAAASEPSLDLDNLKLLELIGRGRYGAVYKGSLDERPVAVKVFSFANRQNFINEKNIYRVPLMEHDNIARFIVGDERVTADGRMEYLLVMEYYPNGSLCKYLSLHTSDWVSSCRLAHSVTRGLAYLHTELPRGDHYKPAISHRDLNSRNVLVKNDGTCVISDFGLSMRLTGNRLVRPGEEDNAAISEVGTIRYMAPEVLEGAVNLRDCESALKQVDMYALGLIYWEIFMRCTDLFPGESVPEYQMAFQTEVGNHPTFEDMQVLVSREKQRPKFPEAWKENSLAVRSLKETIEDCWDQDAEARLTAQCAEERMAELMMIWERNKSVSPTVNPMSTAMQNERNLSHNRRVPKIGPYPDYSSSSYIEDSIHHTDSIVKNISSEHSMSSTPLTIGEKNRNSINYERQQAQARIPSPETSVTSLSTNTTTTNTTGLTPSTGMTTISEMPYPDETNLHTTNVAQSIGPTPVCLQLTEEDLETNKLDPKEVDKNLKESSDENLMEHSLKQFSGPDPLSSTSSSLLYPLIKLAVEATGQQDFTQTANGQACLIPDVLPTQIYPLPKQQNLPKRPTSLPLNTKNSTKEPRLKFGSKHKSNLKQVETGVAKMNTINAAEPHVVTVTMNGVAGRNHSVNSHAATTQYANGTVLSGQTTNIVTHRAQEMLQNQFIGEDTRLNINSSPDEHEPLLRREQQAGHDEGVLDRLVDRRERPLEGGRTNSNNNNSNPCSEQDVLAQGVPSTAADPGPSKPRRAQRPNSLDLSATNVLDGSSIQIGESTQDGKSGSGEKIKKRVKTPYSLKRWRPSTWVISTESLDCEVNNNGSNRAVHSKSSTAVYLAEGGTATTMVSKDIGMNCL

B1: DGL289 (bispecific antibody, human IgG1, lambda)
heavy: EVQLLESGGGLVQPGGSLRLSCAASGFTFSIYAMSWVRQAPGKGLEWVSAISGSGGSTYYADSVKGRFTISRDNSKNTLYLQMNSLRAEDTAVYYCARDFDYWGQGTLVTVTSSPAPNLLGGPEVQLLESGGGLVQPGGSLRLSCAASGFTFSNAWMNWVRQAPGKGLEWVSSISSSSSYIYYADSVKGRFTISRDNSKNTLYLQMNSLRAEDTAVYYCARAVAAGGMFWGLDQWGQGTLVTVTSSASTKGPSVFPLAPSSKSTSGGTAALGCLVKDYFPEPVTVSWNSGALTSGVHTFPAVLQSSGLYSLSSVVTVPSSSLGTQTYICNVNHKPSNTKVDKKV[letters of human IgG1 Fc with L234A L235A G237A (EU numbers) left out]
light: QSVLTQPPSASGTPGQRVTISCSGSSSNIGSNYVYWYQQLPGTAPKLLIYGNINRPSGVPDRFSGSKSGTSASLAISGLRSEDEADYYCAAWDDSLNGRVFGGGTKLTVLPAPNLLGGPQSVLTQPPSASGTPGQRVTISCSGSRSNIGSNSVHWYQQLPGTAPKLLIYGNSNRPSGVPDRFSGSKSGTSASLAISGLRSEDEADYYCQSYDSSLNDHVVFGGGTKLTVLGQPKAAPSVTLFPPSSEELQANKATLVCLISDFYPGAVTVAWKADSSPVKAGVETTTPSKQSNNKYAASSYLSLTPEQWKSHRSYSCQVTHEGSTVEKTVAPTECS
For the molecule B1, in assay [1], the “Agonist activity, % Emax BMP9” value worked out at 68 % Emax BMP9; the “Agonist activity, EC50” value amounted to 2.4 nM; the “Agonist activity, EMAX (RLU)” value amounted to 1.8e+06 RLU. For the same molecule, in assay [2], the “pSMAD1 ELISA in HUVEC, RLU 15 minutes, at 0 nM (baseline)” value came out at 4.6 RLU; the “pSMAD1 ELISA in HUVEC, RLU 15 minutes, at 0.4 nM” value was 4.4 RLU; the “pSMAD1 ELISA in HUVEC, RLU 15 minutes, at 2 nM” value is 4.4 RLU; the “pSMAD1 ELISA in HUVEC, RLU 15 minutes, at 10 nM” value was 4.7 RLU. Moreover, in assay [2], the “pSMAD1 ELISA in HUVEC, RLU 60 minutes, at 0 nM (baseline)” value came out at 4.4 RLU; the “pSMAD1 ELISA in HUVEC, RLU 60 minutes, at 0.4 nM” value came out at 5 RLU; the “pSMAD1 ELISA in HUVEC, RLU 60 minutes, at 2 nM” value was 5.2 RLU; the “pSMAD1 ELISA in HUVEC, RLU 60 minutes, at 10 nM” value came out at 6.9 RLU. For the same molecule, in assay [3], the “Agonist activity, % Emax BMP9” value was 68 % Emax BMP9; the “Agonist activity, EC50” value was found to be 2.4 nM; the “Agonist activity, EMAX (RLU)” value worked out at 1.8e+06 RLU.

B2: DGL291 (bispecific antibody, human IgG1, lambda)
heavy: EVQLLESGGGLVQPGGSLRLSCAASGFTFSSYAMSWVRQAPGKGLEWVANINQDGSEKNYVDSMRGRFTISRDNSKNTLYLQMNSLRAEDTAVYYCAREFDYWGQGTLVTVTSSPAPNLLGGPEVQLLESGGGLVQPGGSLRLSCAASGFTFSDYYMTWIRQAPGKGLEWVSSISGGSTYYADSRKGRFTISRDNSENTLYLQMNSLRAEDTAVYYCARDFGVAGWFGQYGMDVWGQGTLVTVSSASTKGPSVFPLAPSSKSTSGGTAALGCLVKDYFPEPVTVSWNSGALTSGVHTFPAVLQSSGLYSLSSVVTVPSSSLGTQTYICNVNHKPSNTKVDKKV[letters of human IgG1 Fc with L234A L235A G237A (EU numbers) left out]
light: QSVLAQPPSASGTPGQRVTISCSGSSSNIGSNYVYWYQQLPGTAPKLLIYGNNKRPSGVPDRFSGSKSGTSASLAISGLRSEDEADYYCAAWDDSLNGRVFGGGTKLTVLPAPNLLGGPQSVLTQPPSASGTPGQRVTISCTGSSSNIGAGYDVHWYQQLPGTAPKLLIYRSNQRPSGVPDRFSGSKSGTSASLAISGLRSEDEADYYCSSYAGNYNLVFGGGTKLTVLGQPKAAPSVTLFPPSSEELQANKATLVCLISDFYPGAVTVAWKADSSPVKAGVETTTPSKQSNNKYAASSYLSLTPEQWKSHRSYSCQVTHEGSTVEKTVAPTECS
Regarding B2, in assay [1], the “Agonist activity, % Emax BMP9” value came to 36 % Emax BMP9; the “Agonist activity, EC50” value was found to be 0.2 nM; the “Agonist activity, EMAX (RLU)” value was 952000 RLU. Also, in assay [3], the “Agonist activity, % Emax BMP9” value was found to be 36 % Emax BMP9; the “Agonist activity, EC50” value was found to be 0.2 nM; the “Agonist activity, EMAX (RLU)” value came out at 952000 RLU.

B3: DGL810 (bispecific antibody, human IgG1, lambda)
heavy: EVQLLESGGGLVQPGGSLRLSCAASGFTFSDYYMTWIRQAPGKGLEWVSSISGGSTYYADSRKGRFTISRDNSENTLYLQMNSLRAEDTAVYYCARDFGVAGWFGQYGMDVWGQGTLVTVSSPLAPEVQLLESGGGLVQPGGSLRLSCAASGFTFSSYAMSWVRQAPGKGLEWVANINQDGSEKNYVDSMRGRFTISRDNSKNTLYLQMNSLRAEDTAVYYCAREFDYWGQGTLVTVTSSASTKGPSVFPLAPSSKSTSGGTAALGCLVKDYFPEPVTVSWNSGALTSGVHTFPAVLQSSGLYSLSSVVTVPSSSLGTQTYICNVNHKPSNTKVDKKV[letters of human IgG1 Fc with L234A L235A G237A (EU numbers) left out]
light: QSVLTQPPSASGTPGQRVTISCTGSSSNIGAGYDVHWYQQLPGTAPKLLIYRSNQRPSGVPDRFSGSKSGTSASLAISGLRSEDEADYYCSSYAGNYNLVFGGGTKLTVLPLAPQSVLAQPPSASGTPGQRVTISCSGSSSNIGSNYVYWYQQLPGTAPKLLIYGNNKRPSGVPDRFSGSKSGTSASLAISGLRSEDEADYYCAAWDDSLNGRVFGGGTKLTVLGQPKAAPSVTLFPPSSEELQANKATLVCLISDFYPGAVTVAWKADSSPVKAGVETTTPSKQSNNKYAASSYLSLTPEQWKSHRSYSCQVTHEGSTVEKTVAPTECS
As for B3, the “Agonist activity, % Emax BMP9 (DiscoverX assay, average of two experiments)” value in assay [4] stood at 76 % Emax BMP9.

B4: DGL811 (bispecific antibody, human IgG1, lambda)
heavy: B3 heavy
light: QSVLTQPPSASGTPGQRVTISCTGSSSNIGAGYDVHWYQQLPGTAPKLLIYRSNQRPSGVPDRFSGSKSGTSASLAISGLRSEDEADYYCSSYAGNYNLVFGGGTKLTVLPAPNLLGGPQSVLAQPPSASGTPGQRVTISCSGSSSNIGSNYVYWYQQLPGTAPKLLIYGNNKRPSGVPDRFSGSKSGTSASLAISGLRSEDEADYYCAAWDDSLNGRVFGGGTKLTVLGQPKAAPSVTLFPPSSEELQANKATLVCLISDFYPGAVTVAWKADSSPVKAGVETTTPSKQSNNKYAASSYLSLTPEQWKSHRSYSCQVTHEGSTVEKTVAPTECS
Take B4: in assay [4], the “Agonist activity, % Emax BMP9 (DiscoverX assay, average of two experiments)” value turned out to be 73 % Emax BMP9.

B5: DGL812 (bispecific antibody, human IgG1, lambda)
heavy: EVQLLESGGGLVQPGGSLRLSCAASGFTFSDYYMTWIRQAPGKGLEWVSSISGGSTYYADSRKGRFTISRDNSENTLYLQMNSLRAEDTAVYYCARDFGVAGWFGQYGMDVWGQGTLVTVSSPAPNLLGGPEVQLLESGGGLVQPGGSLRLSCAASGFTFSSYAMSWVRQAPGKGLEWVANINQDGSEKNYVDSMRGRFTISRDNSKNTLYLQMNSLRAEDTAVYYCAREFDYWGQGTLVTVTSSASTKGPSVFPLAPSSKSTSGGTAALGCLVKDYFPEPVTVSWNSGALTSGVHTFPAVLQSSGLYSLSSVVTVPSSSLGTQTYICNVNHKPSNTKVDKKV[letters of human IgG1 Fc with L234A L235A G237A (EU numbers) left out]
light: B3 light
Take B5: in assay [4], the “Agonist activity, % Emax BMP9 (DiscoverX assay, average of two experiments)” value amounted to 62 % Emax BMP9.

B6: DGL290 (bispecific antibody, human IgG1, lambda)
heavy: EVQLLESGGGLVQPGGSLRLSCAASGFTFSNAWMNWVRQAPGKGLEWVSSISSSSSYIYYADSVKGRFTISRDNSKNTLYLQMNSLRAEDTAVYYCARAVAAGGMFWGLDQWGQGTLVTVTSSPAPNLLGGPEVQLLESGGGLVQPGGSLRLSCAASGFTFSIYAMSWVRQAPGKGLEWVSAISGSGGSTYYADSVKGRFTISRDNSKNTLYLQMNSLRAEDTAVYYCARDFDYWGQGTLVTVTSSASTKGPSVFPLAPSSKSTSGGTAALGCLVKDYFPEPVTVSWNSGALTSGVHTFPAVLQSSGLYSLSSVVTVPSSSLGTQTYICNVNHKPSNTKVDKKV[letters of human IgG1 Fc with L234A L235A G237A (EU numbers) left out]
light: QSVLTQPPSASGTPGQRVTISCSGSRSNIGSNSVHWYQQLPGTAPKLLIYGNSNRPSGVPDRFSGSKSGTSASLAISGLRSEDEADYYCQSYDSSLNDHVVFGGGTKLTVLPAPNLLGGPQSVLTQPPSASGTPGQRVTISCSGSSSNIGSNYVYWYQQLPGTAPKLLIYGNINRPSGVPDRFSGSKSGTSASLAISGLRSEDEADYYCAAWDDSLNGRVFGGGTKLTVLGQPKAAPSVTLFPPSSEELQANKATLVCLISDFYPGAVTVAWKADSSPVKAGVETTTPSKQSNNKYAASSYLSLTPEQWKSHRSYSCQVTHEGSTVEKTVAPTECS
For the molecule B6, in assay [1], the “Agonist activity, % Emax BMP9” value is 69 % Emax BMP9; the “Agonist activity, EC50” value stood at 5.3 nM; the “Agonist activity, EMAX (RLU)” value was 1.82e+06 RLU. Further, in assay [3], the “Agonist activity, % Emax BMP9” value came out at 69 % Emax BMP9; the “Agonist activity, EC50” value amounted to 5.3 nM; the “Agonist activity, EMAX (RLU)” value stood at 1.82e+06 RLU.
